We go through four molecules from patent publication US20220098304A1 (JIANGSU HENGRUI MEDICINE, published 2022).

Where a chain is given by its changes, count along the chain named.

Experiment [1] concerns the target T1, Human PD-1-His protein (Cat. #10377H08H, Sino Biological) (human, UniProt Q15116 in part).
T1 construct: Bought protein; also called hPD-1-His; hu PD-1-his; not shown: His tag of the bought protein
As to the kind of experiment: SPR (Biacore), antibody captured on Protein A chip, PD-1 in flow.

Experiment [2] addresses T1, Human PD-1-His protein (Cat. …). As to the kind of experiment: ELISA, PD-1-His coated, HRP anti-human IgG detection.
Experiment [3] concerns the target T2, Cyno PD-1 antigen (purchased from Sino Biological) (cynomolgus monkey (Cyno; simian), UniProt B0LAJ3 25-170).
T2 construct: Bought protein, construct not described; also called simian PD-1; not shown: Tag or carrier of the Sino Biological product (probably a His tag)
As to the kind of experiment: SPR (Biacore T200), antibody captured on Protein A chip, antigen in flow, 1:1 Langmuir.

Experiment [4] deals with T1, Human PD-1-His protein (Cat. …). Described as above.

UniProt B0LAJ3, sequence (B0LAJ3 entry or part of it limits assumed): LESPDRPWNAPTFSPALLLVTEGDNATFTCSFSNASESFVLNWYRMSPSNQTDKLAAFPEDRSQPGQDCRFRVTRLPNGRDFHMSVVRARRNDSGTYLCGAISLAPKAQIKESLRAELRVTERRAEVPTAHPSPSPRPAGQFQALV
T1 sequence (Q15116 25-167 limits assumed): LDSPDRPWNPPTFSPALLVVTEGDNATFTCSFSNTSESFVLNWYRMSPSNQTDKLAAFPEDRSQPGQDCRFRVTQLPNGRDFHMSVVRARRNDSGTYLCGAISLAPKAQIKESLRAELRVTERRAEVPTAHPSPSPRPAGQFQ

B1: Hu33-5.IgG4AA (antibody)
heavy: EVQLVESGGGLVQPGGSLRLSCAASGFTFSSYAMSWVRQAPGKGLEWVATISGGGVDTYYQDNVQGRFTISRDNAKNSLYLQMNSLRAEDTAVYYCASPYGHGYFDVWGQGTTVTVSSASTKGPSVFPLAPCSRSTSESTAALGCLVKDYFPEPVTVSWNSGALTSGVHTFPAVLQSSGLYSLSSVVTVPSSSLGTKTYTCNVDHKPSNTKVDKRV[human IgG4 Fc with S228P F234A L235A (EU numbers) left out here]
light: DIQMTQSPSSLSASVGDRVTITCRASQDINNFLNWYQQKPGKAPKLLIYYTSSLHSGVPSRFSGSGSGTDYTLTISSLQPEDFATYYCQQGNTLPWTFGGGTKVEIKRTVAAPSVFIFPPSDEQLKSGTASVVCLLNNFYPREAKVQWKVDNALQSGNSQESVTEQDSKDSTYSLSSTLTLSKADYEKHKVYACEVTHQGLSSPVTKSFNRGEC
notes: Full-length IgG4-AA, kappa
Turning to B1, in experiment [1], the Kd was 0.926 nM, the koff is 0.000135 s⁻¹ and the kon stood at 146000 M⁻¹ s⁻¹.

B2: Hu33-3.IgG4AA (antibody)
heavy: B1 heavy with E1K
light: B1 light with Y71F
notes: Full-length IgG4-AA, kappa
In the case of B2, in experiment [1], the affinity, expressed as Kd, was 1.09 nM; the koff came out at 0.000136 s⁻¹; the association rate constant (kon) came out at 125000 M⁻¹ s⁻¹.

B3: Hu33-6.IgG4AA (antibody)
heavy: B1 heavy with E1K
light: B1 light
notes: Full-length IgG4-AA, kappa
As for B3, in experiment [2], the EC50 stood at 0.206 µg/mL and the “OD value MAX” value amounted to 1.71 OD. In experiment [3], binding was characterised by a dissociation constant (Kd) of 0.96 nM, the koff came out at 0.000241 s⁻¹ and the on-rate constant (kon) came out at 251000 M⁻¹ s⁻¹. In experiment [4], this molecule displayed a dissociation constant (Kd) of 0.918 nM, a koff of 0.000114 s⁻¹ and a kon of 124000 M⁻¹ s⁻¹. In experiment [1], the Kd was determined as 1.08 nM, the koff amounted to 0.00014 s⁻¹ and the kon turned out to be 130000 M⁻¹ s⁻¹.

B4: Hu33-2.IgG4AA (antibody)
heavy: B1 heavy
light: B1 light with Y71F
notes: Full-length IgG4-AA, kappa
In experiment [1], B4 returned a dissociation constant (Kd) of 1.06 nM, a koff of 0.000143 s⁻¹ and a kon of 135000 M⁻¹ s⁻¹.
